Measured values reported in PubChem BioAssay AID1345082 (National Center for Advancing Translational Sciences (NCATS), 2018).
The whole screen tested about 94,000 compounds, of which about 4,000 (4.3%) were called active. The inconclusive results got no clear call from the source; some entries with a clear call stand among them for comparison. The call rests on the fitted dose curve; in most records, active means well fitted inhibition curve with a large enough effect; inconclusive means small, poorly fitted or top-dose-only effect; inactive means no such curve, though single readings can be large or run the other way. Potencies beside an inconclusive call are fits to weak or partial responses and may not hold up.

Assay: Cytotoxic Profiling in NIH 3T3 Cell Line of Diverse Libraries Using Quantitative High-Throughput Screening; further: nearly all actives have a fitted effect of over 55% in size
Conditions: NIH 3T3 viability, CellTiter-Glo ATP luminescence, 48-72 h; activity change, negative = cytotoxicity: at 96.7 µM (top of the series); series mostly up to 96.7 µM
From the text: Cell-based phenotypic screening is a commonly used approach to discover biological pathways, novel drug targets, chemical probes and high-quality hit-to-lead molecules. Many hits identified from high-throughput screening campaign are ruled out through a series of follow-up potency, selectivity/specificity, and cytotoxicity assays. Prioritization of molecules with little or no cytotoxicity for a more in-depth downstream evaluation influence the future direction of projects, so cytotoxicity profiling of the screening libraries at early stage is essential for increasing the likelihood of candidate success. In this study, we analyzed results from a cell-based cytotoxicity screening campaign, comprising nearly 10,000 compounds in NCATS annotated libraries, and over 100,000 compounds in a diversity library, evaluated in four normal cell lines (HEK 293, NIH 3T3, CRL-7250 and HaCat) and a cancer cell line (KB 3-1, a HeLa subline) with overall screening outcomes, hit rates, pan-activity and selectivity. For the annotated library, we also examined the primary targets and mechanistic pathways regularly associated with cell death. To our knowledge, this is the first study to use high-throughput screening to profile large libraries for cytotoxicity assessment in both normal and cancer cell lines. In summary, the results generated here constitutes a valuable resource for the scientific community and provides insight on identifying cytotoxic compounds with particular mechanisms of action, and prioritizing compounds with suitable cytotoxicity profile for further evaluation.
NIH 3T3 cells were seeded into white 1536-well plates using a Multidrop Combi peristaltic dispenser (ThermoFisher, Waltham, MA) at a density of 400 cells/well in 5 uL of medium respectively. A pintool (Kalypsys) was used to transfer 23 nL of compound solution to the 1536-well assay plates. After 48 or 72 hr incubation at 37 degree Celsius, 5% CO2 and 95% humidity, 2.5 uL of CellTiter-Glo (Promega) was dispensed into each well using a dispenser (Aspect Automation, St. Paul, MN) with solenoid valves (Lee Valves, Westbrook CT). Plates were left at room temperature for 10 min before imaging the ATP-coupled luminescence using a ViewLux microplate imager (PerkinElmer, Waltham, MA).
On the % scale 0 is the no-effect control and ±100 the full control effect; potency means the concentration at half of the fitted maximal effect; tags describe the fitted curve by direction and shape.

| SMILES | Potency | activity change, negative = cytotoxicity | outcome |
| --- | --- | --- | --- |
| CCNc1ncc(CN2CCN(c3cccc(C(F)(F)F)c3)CC2)cn1 | inconclusive: 22.4 µM [inhibitor, full curve] |  |  |
| O=C(NCCCc1ccccc1)c1ccc2nnc(-c3ccc(C(F)(F)F)cc3)n2c1 | inconclusive: 44.7 µM [inhibitor, partial curve, poor fit] |  |  |
| Cc1cc(C(=O)N2CCCC(CCc3c(F)cccc3F)C2)no1 (stereo unspecified) | inconclusive: 56.2 µM [inhibitor, partial curve, poor fit] |  |  |
| CN(C)c1ccc(CN2CCNc3cnc(-c4ccccc4)cc3C2)cc1 | inconclusive: 112 µM [inhibitor, single point] |  |  |
| COc1ccccc1Oc1ncccc1CNC(=O)c1ccc(C)nc1 |  | inactive: -9.18% |  |
| Cc1cccc(CN2CCCOCCNC(=O)CC2)c1 |  | inactive: -3.15% |  |
| CC(C)S(=O)(=O)N1CCN(c2ccc3nnc(C4CC4)n3n2)CC1 |  | inactive: -29% |  |
| O=C(c1cccs1)N1CCCN(c2cc(-c3ccc(Cl)cc3)[nH]n2)CC1 | inconclusive: 44.7 µM [inhibitor, partial curve, poor fit] |  |  |
| CC1=C[C@@H](CN2CCN(c3ccccn3)CC2)[C@H](C(C)C)C[C@H]1Cc1nnc(-c2ccc(C)cc2)o1 | inconclusive: 50.1 µM [inhibitor, partial curve, poor fit] |  |  |
| Cc1ccc(-c2nc(C(=O)NCc3ccc4c(c3)OCO4)no2)cc1 | inconclusive: 70.8 µM [inhibitor, single point] |  |  |
| O=C(Nc1cccc(C(F)(F)F)c1)c1cnc2c(c1)N(Cc1ccccc1)CCC2 | active: 31.6 µM |  |  |
| CC(C)c1noc(-c2cn(C3CCN(C(=O)c4ccc(Cl)s4)C3)nn2)n1 (stereo unspecified) | inconclusive: 10 µM [inhibitor, partial curve, poor fit] |  |  |
| Cc1cnc(C2CCN(S(C)(=O)=O)C2)n1Cc1ccc(F)cc1 (stereo unspecified) |  | inactive: -16.2% |  |
| O=C(NCCc1c[nH]c2ccc(Cl)cc12)C1CC(=O)N(c2n[nH]c3ccccc23)C1 (stereo unspecified) | inconclusive: 44.7 µM [inhibitor, partial curve, poor fit] |  |  |
| CC(C)NC(=O)c1nc(-c2cccnc2)c2cnccn12 | inconclusive: 79.4 µM [inhibitor, partial curve, poor fit] |  |  |
| Cn1cc(CN2CCN(c3ccc(C#N)cn3)CC2)c(-c2ccccc2)n1 | inconclusive: 50.1 µM [inhibitor, partial curve, poor fit] |  |  |
| COc1cccc(C(=O)N2CCC(Oc3ncccc3C(=O)N3CCCCC3)C2)c1 (stereo unspecified) | inconclusive: 2.51 µM [inhibitor, full curve, poor fit] |  |  |
| COc1ccc(C[C@H](NC(=O)[C@@]2(O)C[C@@H](O)[C@H](O)[C@@H](NC(=O)CS(=O)(=O)c3ccccc3)C2)C(N)=O)cc1 |  |  | inactive |
| CC(C)N1CCC2(CC1)CN(C(=O)Cc1cccc(F)c1)Cc1ccccc1O2 | inconclusive: 44.7 µM [inhibitor, partial curve, poor fit] |  |  |
| COc1ccc(F)cc1-c1ccc(CN2CCC(NC(=O)Nc3ccc(Cl)cc3)C2)cc1 (stereo unspecified) | active: 11.2 µM |  |  |
| COc1ccc(CN(C)C2CCc3ccccc32)cc1 (stereo unspecified) | inconclusive: 39.8 µM [inhibitor, partial curve, poor fit] |  |  |

| SMILES | Potency | activity change, negative = cytotoxicity | outcome |
| --- | --- | --- | --- |
| COc1ccc(-c2[nH]nc3ncc(-c4cn[nH]c4)nc23)c(C)c1 | inconclusive: 22.4 µM [inhibitor, full curve, poor fit] |  |  |
| O=C(c1ccc(F)cc1)N1CCC(Cc2nc(C3CCOCC3)no2)CC1 | inconclusive: 22.4 µM [inhibitor, full curve, poor fit] |  |  |
| CN(C)c1nccnc1OC1CCN(C(=O)c2ccn[nH]2)C1 (stereo unspecified) |  |  | inactive |
| CSCC(=O)N1CCCC(CCc2cccc(F)c2)C1 (stereo unspecified) | inconclusive: 39.8 µM [inhibitor, partial curve] |  |  |
| O=C(C1CCCC1)N1CCc2nc(-c3ccc(Cl)cc3)nc(-c3ccccc3)c2C1 | inconclusive: 44.7 µM [inhibitor, partial curve, poor fit] |  |  |
| O=C(CCc1nc2ccc(Cl)cc2[nH]1)NCCc1noc(-c2cccnc2)n1 |  | inactive: -13.8% |  |
| CN(CC[C@H]1CN(C(=O)c2ccnc(Cl)c2)CC[C@H]1CC(=O)O)c1ccccc1 | active: 28.2 µM |  |  |
| CCN1c2cc(C(=O)NCc3ccc(C)c(C)c3)ccc2C(=O)N2CCCCC21 (stereo unspecified) | inconclusive: 56.2 µM [inhibitor, partial curve, poor fit] |  |  |
| C[S+](=O)([O-])N1CCC(Cn2ccc3c(N4CCOCC4)nc(-c4cccnc4)cc32)CC1 | active: 7.08 µM |  |  |
| Cn1cnc([S+](=O)([O-])N2CCCC(c3nnc4n3C(C(=O)O)CC4)C2)c1 (stereo unspecified) |  | inactive: 0.256% |  |
| COCc1cc(=O)n(CC(=O)Nc2ccc(C(C)C)cc2)c(N2CCOCC2)n1 |  | inactive: -3.29% |  |
| CCCN(CC1CCOC1)C(=O)Nc1cccc(CC)c1 (stereo unspecified) |  | inactive: -22.3% |  |
| Cn1ncc2c(C(=O)NCc3cccnc3)cc(C(C)(C)C)nc21 | active: 44.7 µM |  |  |
| O=C(C1CCCCC1)N1C[C@@H](CO)[C@@H]2Oc3c(F)cccc3[C@@H]21 | inconclusive: 50.1 µM [inhibitor, partial curve, poor fit] |  |  |
| Cc1ccccc1N(C)C1CN([S+](=O)([O-])c2cccc(C(F)(F)F)c2)C1 | inconclusive: 50.1 µM [inhibitor, partial curve, poor fit] |  |  |
| O=C(Nc1ccccc1F)C1CCCCN1Cc1ccc(-c2cccs2)cc1 (stereo unspecified) | inconclusive: 56.2 µM [inhibitor, partial curve, poor fit] |  |  |
| COc1ccc(N2CCN(c3cc(C4CC(N)C4)nc(N)n3)CC2(C)C)cc1 (stereo unspecified) | active: 22.4 µM |  |  |
| Cc1ccccc1CC(=O)Nc1ccc2ncnc(N3CCCCC3)c2c1 | inconclusive: 44.7 µM [inhibitor, partial curve, poor fit] |  |  |
| COc1cccc(CN2CCOC3(CCN(Cc4ccc(Cl)cc4)CC3)C2=O)c1 | inconclusive: 63.1 µM [inhibitor, partial curve, poor fit] |  |  |
| COc1ccc(CN2CCC3(CC(c4cccc(C(F)(F)F)c4)=NO3)C2)cc1 (stereo unspecified) | inconclusive: 56.2 µM [inhibitor, partial curve, poor fit] |  |  |
